Results: the supplement of paper PMC4967469
Lines with a small IC50 respond at low doses; fits outside the tested doses are given as limits. AUC is the area under the same curve over the 256-fold range up to the top dose, as a fraction; the more sensitive the line, the further below 1. For some assays here: Any top dose called inferred was calculated from the reported fits. For some assays here: Drugs with an entry number were screened twice under separate entries, and the two screens often disagree.

Key:
Assay in all cases: Viability of human cancer cell lines after 72 h of drug (GDSC screen)
LFM-A13 = compound: C/C(O)=C(\C#N)C(=O)Nc1cc(Br)ccc1Br [LFM-A13]; settings: top dose 16 µM; top dose inferred
Method: (§1)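 Human cancer cell lines in 384-well plates, medium with 10% serum, drug for 72 h over a 256-fold dose range (nine 2-fold or five 4-fold steps up to the top dose). Adherent lines were fixed and stained with the nucleic acid dye Syto60, suspension lines read with resazurin; signal relative to control wells, capped at 0 and 100%. One two-parameter sigmoid per drug and line, fitted in a mixed model over all curves with the slope shared within a line.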

AUY922 = compound: CCNC(=O)c1noc(-c2cc(C(C)C)c(O)cc2O)c1-c1ccc(CN2CCOCC2)cc1 [AUY922]; settings: top dose 0.256 µM; top dose inferred
Method: as §1

Bicalutamide = compound: CC(O)(CS(=O)(=O)c1ccc(F)cc1)C(=O)Nc1ccc(C#N)c(C(F)(F)F)c1 [Bicalutamide]; settings: top dose inferred
Method: as §1

Gemcitabine = compound: Nc1ccn([C@@H]2O[C@H](CO)[C@@H](O)C2(F)F)c(=O)n1 [Gemcitabine]; settings: top dose 1.024 µM
Method: as §1

GNF-2 = compound: NC(=O)c1cccc(-c2cc(Nc3ccc(OC(F)(F)F)cc3)ncn2)c1 [GNF-2]; settings: top dose 1.28 µM; top dose inferred
Method: as §1

Nilotinib = compound: Cc1cn(-c2cc(NC(=O)c3ccc(C)c(Nc4nccc(-c5cccnc5)n4)c3)cc(C(F)(F)F)c2)cn1 [Nilotinib]; settings: top dose 2 µM
Method: as §1

T0901317 = compound: O=S(=O)(c1ccccc1)N(CC(F)(F)F)c1ccc(C(O)(C(F)(F)F)C(F)(F)F)cc1 [T0901317]; settings: top dose 10.24 µM; top dose inferred
Method: as §1

KIN001-270 = compound: Cc1ccc(Nc2cc(-c3cccc(N4C(=O)c5ccccc5C4=O)c3)ncn2)cc1NS(C)(=O)=O [KIN001-270]; settings: top dose 20 µM; top dose inferred
Method: as §1

TW-37 = compound: CC(C)c1ccccc1Cc1cc(C(=O)Nc2ccc(S(=O)(=O)c3ccccc3C(C)(C)C)cc2)c(O)c(O)c1O [TW-37]; settings: top dose 5 µM
Method: as §1

MP470 = compound: S=C(NCc1ccc2c(c1)OCO2)N1CCN(c2ncnc3c2oc2ccccc23)CC1 [MP470]; settings: top dose 20 µM; top dose inferred
Method: as §1

[1] = top dose 1.024 µM, screen: GDSC drug entry 150
[2] = top dose 10 µM, screen: GDSC drug entry 1502

| Cell Line | AUC (LFM-A13) | IC50 (LFM-A13) | AUC (AUY922) | IC50 (AUY922) | AUC (Bicalutamide; [1]) | IC50 (Bicalutamide; [1]) | AUC (Bicalutamide; [2]) | IC50 (Bicalutamide; [2]) | AUC (Gemcitabine) | IC50 (Gemcitabine) | AUC (GNF-2) | IC50 (GNF-2) | AUC (Nilotinib) | IC50 (Nilotinib) | AUC (T0901317) | IC50 (T0901317) | AUC (KIN001-270) | IC50 (KIN001-270) | AUC (TW-37) | IC50 (TW-37) | AUC (MP470) | IC50 (MP470) |
| --- | --- | --- | --- | --- | --- | --- | --- | --- | --- | --- | --- | --- | --- | --- | --- | --- | --- | --- | --- | --- | --- | --- |
| TE-1 (oesophagus, adherent) | 0.95 | > 16 µM | 0.458 | 0.0119 µM | 0.981 | > 1.02 µM | 0.962 | > 10 µM | 0.927 | > 1.02 µM | 0.94 | > 1.28 µM | 0.964 | > 2 µM | 0.97 | > 10.2 µM | 0.977 | > 20 µM | 0.644 | 0.871 µM | 0.863 | > 20 µM |
| H9 (lymphoid neoplasm, suspension) | 0.989 | > 16 µM | 0.529 | 0.0189 µM | 0.992 | > 1.02 µM | 0.982 | > 10 µM | 0.087 | < 0.004 µM | 0.992 | > 1.28 µM | 0.992 | > 2 µM | 0.924 | > 10.2 µM | 0.991 | > 20 µM | 0.545 | 0.405 µM | – | – |
| MOLP-8 (myeloma, suspension) | 0.931 | > 16 µM | 0.417 | 0.00955 µM | 0.987 | > 1.02 µM | 0.985 | > 10 µM | 0.129 | 0.00454 µM | 0.985 | > 1.28 µM | 0.974 | > 2 µM | 0.85 | 7.34 µM | 0.925 | > 20 µM | 0.581 | 0.514 µM | 0.507 | 1.31 µM |
| TE-12 (oesophagus, suspension) | 0.953 | > 16 µM | 0.467 | 0.0128 µM | 0.983 | > 1.02 µM | 0.974 | > 10 µM | 0.878 | > 1.02 µM | 0.95 | > 1.28 µM | 0.982 | > 2 µM | 0.951 | > 10.2 µM | 0.959 | > 20 µM | 0.469 | 0.253 µM | 0.889 | > 20 µM |
| LS-1034 (large intestine, adherent) | 0.976 | > 16 µM | 0.639 | 0.0404 µM | 0.985 | > 1.02 µM | 0.984 | > 10 µM | 0.873 | > 1.02 µM | 0.986 | > 1.28 µM | 0.986 | > 2 µM | 0.986 | > 10.2 µM | 0.968 | > 20 µM | 0.68 | 1.05 µM | 0.957 | > 20 µM |
| LS-513 (large intestine, adherent) | 0.985 | > 16 µM | 0.689 | 0.0553 µM | 0.985 | > 1.02 µM | 0.984 | > 10 µM | 0.803 | 0.533 µM | 0.983 | > 1.28 µM | 0.982 | > 2 µM | 0.977 | > 10.2 µM | 0.98 | > 20 µM | 0.623 | 0.69 µM | 0.96 | > 20 µM |
| OVCAR-4 (ovary, adherent) | 0.948 | > 16 µM | 0.566 | 0.0264 µM | 0.976 | > 1.02 µM | 0.954 | > 10 µM | 0.662 | 0.225 µM | 0.935 | > 1.28 µM | 0.964 | > 2 µM | 0.965 | > 10.2 µM | 0.951 | > 20 µM | 0.592 | 0.634 µM | 0.883 | > 20 µM |
| LU-139 (small cell lung carcinoma, suspension) | 0.98 | > 16 µM | 0.932 | > 0.256 µM | 0.979 | > 1.02 µM | 0.969 | > 10 µM | 0.468 | 0.0511 µM | 0.975 | > 1.28 µM | 0.94 | > 2 µM | 0.92 | > 10.2 µM | 0.923 | > 20 µM | 0.73 | 1.72 µM | 0.874 | > 20 µM |
| GR-ST (lymphoblastic leukaemia, suspension) | 0.966 | > 16 µM | 0.603 | 0.0325 µM | 0.98 | > 1.02 µM | 0.952 | > 10 µM | 0.201 | 0.00666 µM | 0.972 | > 1.28 µM | 0.981 | > 2 µM | 0.916 | > 10.2 µM | 0.922 | > 20 µM | 0.451 | 0.224 µM | 0.613 | 2.74 µM |
| SUP-T1 (T-cell lymphoblastic leukaemia, suspension) | 0.973 | > 16 µM | 0.627 | 0.0347 µM | 0.99 | > 1.02 µM | 0.983 | > 10 µM | 0.246 | 0.0129 µM | 0.963 | > 1.28 µM | 0.988 | > 2 µM | 0.953 | > 10.2 µM | 0.965 | > 20 µM | 0.743 | 1.44 µM | 0.938 | > 20 µM |
| BC-1 (B-cell lymphoma, suspension) | 0.954 | > 16 µM | 0.544 | 0.0207 µM | 0.991 | > 1.02 µM | 0.942 | > 10 µM | 0.246 | 0.0137 µM | 0.991 | > 1.28 µM | 0.991 | > 2 µM | 0.87 | 7.26 µM | 0.936 | > 20 µM | 0.599 | 0.559 µM | – | – |
| HCC2157 (breast, suspension) | 0.917 | > 16 µM | 0.671 | 0.0492 µM | 0.986 | > 1.02 µM | 0.986 | > 10 µM | 0.884 | > 1.02 µM | 0.985 | > 1.28 µM | 0.895 | > 2 µM | 0.963 | > 10.2 µM | 0.956 | > 20 µM | 0.585 | 0.541 µM | 0.848 | 16 µM |
